Measurements taken from PubChem BioAssay AID1508642 (National Center for Advancing Translational Sciences (NCATS), 2021).
The whole screen tested about 43,000 compounds, of which about 200 (0.47%) were called active. Roughly 12% stayed inconclusive and do not appear here. The call rests on the fitted dose curve; in most records, active means well fitted cell-killing curve with a large enough effect; inconclusive means small, poorly fitted or top-dose-only effect, or effect the other way; inactive means flat fitted curve, though single readings scatter. The list shows a part of the results.

Assay: Cell viability qHTS assay in S16 Pmp22-F2sN cells; further: nearly all actives have a fitted effect of over 65% in size
Conditions: S16 Pmp22-F2sN Schwann cells (luciferase reporters placed in the Pmp22 gene) viability, CellTiter-Glo, 24 h; series mostly up to 57.5 µM; activity change, negative = cytotoxicity: at the top concentration
In short: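 CellTiter-Glo counter-screen, qHTS, 1536-well. Cells: S16(c9) Pmp22-F2sN, 500-1,000/well in DMEM + 10% FBS. Cpd 23 nL pin transfer, 24 h, 37C/5% CO2. Read: luminescence, CCD imager.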
On the % scale 0 is the no-effect control and ±100 the full control effect.

| Compound | activity change, negative = cytotoxicity |
| --- | --- |
| COc1cccc(-c2cc(C(=O)NCCc3ccc(C)cc3)[nH]n2)c1 | inactive: 3.32% |
| COc1ccc(-c2c(C)c3ccc(O)c(CN4CCN(C)CC4)c3oc2=O)cc1OC | inactive: 4.21% |
| COc1ccc2c(c1)c1c(c(=O)n(-c3cccc(Cl)c3)c(=O)n1C)n2C | inactive: -6.3% |
| Cc1cccc2sc(N(Cc3cccnc3)C(=O)C3CCCCC3)nc12 | inactive: -16.1% |
| COc1ccc(S(=O)(=O)c2cn(CC(=O)Nc3ccccc3)c3ccc(Cl)cc3c2=O)cc1 | inactive: 8.96% |
| Cc1ccc(NC(=O)Cn2c(=O)n(Cc3ccc4c(c3)OCO4)c(=O)c3ccc(C(=O)NC4CCCCC4)cc32)cc1 | inactive: 0.615% |
| CCOC(=O)c1ccc(NC(=O)Cc2coc3cc(C)cc(C)c23)cc1 | inactive: -0.32% |
| O=C(Nc1cc(-c2nc3ccccc3o2)ccc1Cl)c1cccc2c(Cl)cccc12 | inactive: 2.61% |
| Cc1cccc(NC(=O)CSc2nc(=O)n(CCN3CCOCC3)c3c2CCC3)c1C | inactive: 13.5% |
| CCCC(=O)NCc1nc2cccnc2n1Cc1ccc(F)cc1 | inactive: 2.28% |
| Cc1cccc(Cn2nnc3c(=O)[nH]c(C4CCN(C(=O)c5ccccc5F)CC4)nc32)c1 | inactive: 13.4% |
| Cc1cc([N+](=O)[O-])ccc1NC(=O)CSc1nccn1C | inactive: 2.35% |
| COc1ccc(CNC(=O)c2cnc(N3CCCC3)nc2C)cc1 | inactive: 5.91% |
| O=C(CSc1cn(CC(=O)N2CCOCC2)c2ccccc12)Nc1ccccc1C(F)(F)F | inactive: 2.79% |
| CCCCc1nn2c(=O)cc(COC(=O)c3ccccc3NC(=O)C3CCCCC3)nc2s1 | inactive: -2.48% |
| COc1ccc(S(=O)(=O)NCc2cccn2Cc2cccc(C)c2)cc1OC | inactive: -26.6% |
| CCN(C(=O)CSc1nnc(C)n2c1cc1occc12)c1ccccc1 | inactive: -16.4% |
| CCOc1ccc(NC(=O)c2cc3c(=O)n4cccc(C)c4nc3s2)cc1 | inactive: 1.76% |
| CCOC(=O)CC(NC(=O)c1cc2c(=O)n3cccc(C)c3nc2s1)c1ccc(OCC)c(OC)c1 (stereo not given) | inactive: 0.341% |
| CC(C)OCCCNC(=O)Cc1ccc(NC(=O)N2CCCCc3ccccc32)cc1 | inactive: -26.9% |
| CCc1ccccc1NC(=O)Cn1c(=O)n(-c2cccc(C)c2)c(=O)c2c1c1cc(OC)ccc1n2C | inactive: 1.89% |
| CCOc1ccccc1N(C)C(=O)c1cc2c(s1)-c1ccccc1OC2 | inactive: 0.542% |
| CCc1cccc(NC(=O)Nc2cn(C)c(=O)c3ccccc23)c1 | inactive: 17.5% |
| Cc1ccc(C(=O)COC(=O)c2cc(-c3cccs3)nc3ccccc23)cc1 | inactive: -2.58% |

| Compound | activity change, negative = cytotoxicity |
| --- | --- |
| COc1cccc(NC(=O)C2CCN(S(=O)(=O)c3c(C)noc3C)CC2)c1 | inactive: 5% |
| COc1ccc(-c2noc(CCC(=O)Nc3cccc(C)c3C)n2)cc1OC | inactive: 4.09% |
| Cc1ccc(S(=O)(=O)c2cn(CC(=O)Nc3ccc(F)cc3)c3cc4c(cc3c2=O)OCO4)cc1 | inactive: -1.51% |
| Cc1ccc(NC(=O)Cn2c(=O)n(CC(=O)NCCc3ccccc3)c(=O)c3ccccc32)cc1C | inactive: -12.3% |
| CCCCc1nc(SCC(=O)Nc2ccc(S(N)(=O)=O)cc2)n[nH]1 | inactive: 12% |
| COc1ccc(C)cc1NC(=O)C(=O)NCC(c1cccnc1)N1CCN(c2ccccc2F)CC1 (stereo not given) | inactive: -16.7% |
| O=C(Cn1c(=O)n(-c2ccc(Cl)cc2)c(=O)c2c3c(sc21)CCCCC3)Nc1cccc(Cl)c1 | inactive: -0.108% |
| O=C(NCc1cccc(Cl)c1)c1cc2c(s1)-c1ccccc1SC2 | inactive: -7.96% |
| Cc1ccc2cccc(NC(=O)c3cccc4c(Br)cccc34)c2n1 | inactive: -0.276% |
| CCn1c(=O)n(-c2ccc3c(c2)OCO3)c2nc(-c3cccc(OC)c3OC)nc(C(N)=O)c21 | inactive: -0.244% |
| CCCn1cc(S(=O)(=O)c2ccc(C)c(C)c2)c(=O)c2cc(F)c(N3CCC(C)CC3)cc21 | inactive: 7.16% |
| COc1ccc(N2CCN(C(=O)c3ccc4c(c3)N(Cc3cccc(Cl)c3)C(=O)c3ccccc3S4(=O)=O)CC2)cc1 | inactive: -2.52% |
| COc1cccc(CNC(=O)c2c(C)oc3ncnc(N4CCOCC4)c23)c1 | inactive: -6.58% |
| COc1ccc(N2CCN(C(=O)C3Cc4ccccc4N3C(C)=O)CC2)cc1 (stereo not given) | inactive: -23.7% |
| Cc1cc(C)cc(N2CCn3c2nc2c3c(=O)n(C/C=C/c3ccccc3)c(=O)n2C)c1 | inactive: 3.27% |
| COc1cccc(CC(=O)Nc2ccc(-c3nc4ccccc4s3)cc2Cl)c1 | inactive: -16.2% |
| CCOc1cc(CNC(=O)C2CCN(c3nc4ccccc4[nH]3)CC2)cc(OCC)c1OCC | inactive: 11% |
| Cc1ccc2nc(-c3ccc(F)cc3)c(NC(C)(C)CC(C)(C)C)n2c1 | inactive: -4.95% |
| Cc1c(Cl)cccc1NC(=O)CSc1ccc(-c2ccccn2)nn1 | inactive: -0.723% |
| Cc1ccc(C)c(NC(=O)CCOc2ccccc2)c1 | inactive: -3.02% |
| COC(=O)c1sc2c(c1C)c(=O)n(-c1ccccc1)c(=O)n2CC(=O)Nc1cccc(C)c1 | inactive: -1.95% |
| Cc1nn2c(=O)cc(COC(=O)c3ccccc3NC(=O)c3cccs3)nc2s1 | inactive: -8.3% |
| CC(C)NC(=O)c1ccc2c(c1)N(Cc1cccc(Cl)c1)C(=O)c1ccccc1S2=O (stereo not given) | inactive: -1.68% |
| CCc1ccccc1NS(=O)(=O)c1ccc2c(c1)CCCN2C(=O)C1CCC1 | inactive: -29.5% |

| Compound | activity change, negative = cytotoxicity |
| --- | --- |
| COc1ccc(NC(=O)CN2CCN(Cc3ccccc3Cl)S2(=O)=O)cc1Cl | inactive: 2% |
| COc1cc(OC)c(NC(=O)N2CCC(CN3CCOCC3)CC2)cc1Cl | inactive: 19.9% |
| CCN(C(=O)Cn1c(=O)oc2cc(S(=O)(=O)N3CCCCC3)ccc21)c1ccccc1 | inactive: 9.93% |
| CCc1cccc(NC(=O)CCc2c(C)nc3c(-c4ccccc4)c(C)nn3c2C)c1 | inactive: 17.1% |
| Cc1ccc(-c2nn(-c3ccccc3)c3c2cnc2ccccc23)cc1C | inactive: -4.39% |
| Cc1cc(NC(=O)Nc2nnc(N3CCCCCC3)s2)ccc1Br | inactive: -0.629% |
| CCOc1ccc(NC(=O)C(=O)NCCc2csc(-c3ccc(C(F)(F)F)cc3)n2)cc1 | inactive: 6.4% |
| Cc1ccc(C(=O)N2CCn3c4c(c5cc(C)ccc53)CCCC42)cc1 (stereo not given) | inactive: -14.3% |
| COc1ccc(CCNC(=O)c2ccc3c(c2)N(Cc2ccccc2)CCS3)cc1OC | inactive: -12.7% |
| Cc1cc(C)cc(NS(=O)(=O)c2ccc3[nH]cc(C(=O)NCCc4ccccc4)c(=O)c3c2)c1 | inactive: 13% |
| CC(C)c1ccc(NS(=O)(=O)c2cc(Br)cc3c2N(C(=O)C2CC2)CC3)cc1 | inactive: 17.8% |
| COc1ccc(OC)c(-c2noc(N3CCN(c4ccc(Cl)cc4)CC3)n2)c1 | inactive: 27% |
| Cn1cnc(S(=O)(=O)N2CCCC(C(=O)NCc3ccc(F)cc3)C2)c1 (stereo not given) | inactive: 15.1% |
| Cc1ccc(S(=O)(=O)N(CCc2ccccc2)CC(=O)Nc2ccccc2C)cc1 | inactive: 7.05% |
| COc1ccccc1CNC(=O)c1cc2c(s1)-c1ccc(Cl)cc1SC2 | inactive: -0.721% |
| COc1ccccc1N1CCN(C(CNC(=O)C(=O)NCc2cccnc2)c2cccnc2)CC1 (stereo not given) | inactive: -5.9% |
| CCN(CC)CCCNC(=O)CCC(=O)NNc1nc2ccccc2c2nc(C)nn12 | inactive: 26.3% |
| O=C(COc1ccc(Cl)cc1)Nc1nnc(S(=O)(=O)N2CCCCCC2)s1 | inactive: -3.8% |
| CCOc1cccc(CC(=O)N2CCc3c([nH]c4ccc(OC)cc34)C2c2ccc(F)cc2)c1OCC (stereo not given) | inactive: -5.02% |
| CC(=O)N1CCCc2cc(S(=O)(=O)N3CCC(C(=O)Nc4ccc(C)cc4Cl)CC3)ccc21 | inactive: -1.29% |
| CCCCOc1ccc(C2C(C(=O)Nc3ccccc3OC)=C(C)Nc3nnnn32)cc1OC (stereo not given) | inactive: -7.98% |
| Cc1ccn2c(Nc3ccc4c(c3)OCCO4)c(-c3ccccc3O)nc2c1 | inactive: 0.746% |
| Cc1ccc(S(=O)(=O)n2nc(C)c(S(=O)(=O)N3CCCCCC3)c2C)cc1C | inactive: -13.8% |
| CC(C)Cc1nn2c(=O)cc(COC(=O)c3ccc(NC(=O)C4CCCCC4)cc3)nc2s1 | inactive: 4.42% |

| Compound | activity change, negative = cytotoxicity |
| --- | --- |
| COc1ccc(NC(=O)c2cc(S(=O)(=O)N3CCCC3)ccc2OC)cc1 | inactive: 10.5% |
| CCOc1ccc(C(=O)NCC(c2cccs2)S(=O)(=O)c2ccccc2)cc1 (stereo not given) | inactive: 3.46% |
| CCOc1ccc(NC(=O)c2cc(C)nc3c2c(C)nn3-c2ccc(C)cc2)cc1 | inactive: 4.99% |
| Cc1cccc(C(=O)N2CCc3cc(CNC(=O)CSc4ccccc4)ccc32)c1 | inactive: -6.11% |
| CCOc1ccc(C(=O)NCCSc2c(C)[nH]c3ccccc23)cc1OCC | inactive: 16.3% |
| CCOc1ccccc1NC(=O)c1ccc(F)c(S(=O)(=O)N2CCN(c3ccc(F)cc3)CC2)c1 | inactive: 3.17% |
| COc1ccc(Cn2ccnc2SCC(=O)Nc2nnc(C)s2)cc1 | inactive: -6.77% |
| Cc1nn2c(C)c(C(=O)NCc3ccc(OC(C)C)cc3)cnc2c1-c1ccc(F)cc1 | inactive: -12.6% |
| COc1cccc(-n2c(SCc3ccc(F)cc3)nc3c([nH]c4ccccc43)c2=O)c1 | inactive: 10.1% |
| Cc1ccc2nc(-c3ccc(Cl)s3)c(Nc3ccc4c(c3)OCCO4)n2c1 | inactive: 3.56% |
| COC(=O)c1ccc(NC(=O)CN(C)S(=O)(=O)c2ccc(Br)s2)cc1 | inactive: 7.11% |
| COc1ccc(NC(=O)Cn2c(=O)c3ccccc3n3nncc23)c(OC)c1 | inactive: 19.7% |
| CC(=O)c1c(C)oc2c1cc(NS(=O)(=O)c1ccc(C(C)(C)C)cc1)c1ccccc12 | inactive: -13.7% |
| Cc1ccc(CNC(=O)C(C)n2nc(C)c3sc4ccccc4c3c2=O)cc1 (stereo not given) | inactive: -21.1% |
| CCN(CCCNC(=O)c1nn(-c2ccc(C)cc2)c(=O)c2c1c1ccccc1n2C)c1cccc(C)c1 | inactive: 21.8% |
| Cc1cccc(NC(=O)CN2C(=O)C(c3ccc(F)cc3)=NC23CCCCCC3)c1 | inactive: -7.34% |
| CCn1c(=O)cc(OCC(=O)N2CCN(c3cccc(C)c3C)CC2)c2ccccc21 | inactive: 3.88% |
| COc1cccc(CNC(=O)CN2C(=O)COc3ccc(S(=O)(=O)N4CCOCC4)cc32)c1 | inactive: 2.24% |
| Cc1ccc2c(c1)-c1c(c(C(=O)N3CCN(c4cc(C)ccc4C)CC3)nn1C)CS2 | inactive: 7.65% |
| Cc1ccc(CNC(=O)c2ccc(N3CCCC3)c(NC(=O)Nc3ccc(F)c(Cl)c3)c2)cc1 | inactive: 2.39% |
| COc1ccc(CCNC(=O)CSc2nc3nc(C)c(Cc4ccc(C)cc4)c(C)n3n2)cc1OC | inactive: 5.32% |
| CCN1CCN(C(=O)c2ccc3c(c2)N(Cc2cccc(Cl)c2)C(=O)c2ccccc2S3=O)CC1 (stereo not given) | inactive: -11% |
| Cc1ccc(C)c(OCCn2c(C3CC(=O)N(Cc4ccc(F)cc4)C3)nc3ccccc32)c1 (stereo not given) | inactive: -14.2% |
